Laboratory results: a collection of fitness landscapes (doi:10.1016/j.celrep.2020.107928)
In all, about 81,000 sequences were measured (“one-hybrid fitness for binding NBS DNA”: median about -0.1, highest 2% from about 0.36 on). This is one part of the list.

B1: Caulobacter ParB omega fusion; a variant is named by its letters at X, in order, B8GW30 (parent)
chain: MESVVVGEPGMSEGRRGLGRGLSALLGEVDAAPAQAPGEQLGGSREAPIEILQRNPDQPRRTFREEDLEDLSNSIREKGVLQPILVRPSPDTAGEYQIVAGERAWRAAQRAGLKTVPIMVRELDDLAVLEIGIIENVQRADLNVLEEALSYKVLMEKFERTQENIAQTIGKSXSHVANXMRLLXLPDEVQSYLVSGELTAXHARAIAAAADPVALAKQIIEGGLSVRETEALARKAPNLSAGKSKGGRPPRVKDTDTQALESDLSSVLGLDVSIDHRGSTGTLTITYATLEQLDDLCNRLTRGI

Variants of: B1
Experiment: one-hybrid fitness for binding NBS DNA (the Noc-binding site; scaled: cognate 1, non-cognate 0); higher = stronger binding
Details: with NBS DNA site
Summary of the method: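 Bacterial one-hybrid selection in E. coli USO rpoZ- hisB- pyrF- with a HIS3 reporter carrying the site 19 bp from the promoter, screening Caulobacter ParB libraries with four specificity codons randomised (NNS). Cells grew 48 hours at 37°C on M9-minus-histidine plus 0.1 mM IPTG and 5 mM 3-AT. Plasmids before and after selection were Illumina-sequenced, three replicate libraries pooled, and variants under 10 reads dropped. Fitness is the log change in variant-to-wild-type read ratio, rescaled to cognate 1, non-cognate 0.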

QLSN and ARRW cannot be ordered by “one-hybrid fitness for binding NBS DNA” value: ≤ 0.2 for the first, ≤ 0.2 for the second.

QKEE and VSNK cannot be ordered by “one-hybrid fitness for binding NBS DNA” value: ≤ 0.2 for the first, ≤ 0.2 for the second.

PNNV and CQGA cannot be ordered by “one-hybrid fitness for binding NBS DNA” value: ≤ 0.2 for the first, ≤ 0.2 for the second.

LTHI and MLRG cannot be ordered by “one-hybrid fitness for binding NBS DNA” value: ≤ 0.2 for the first, ≤ 0.2 for the second.

EPAP and KAHR cannot be ordered by “one-hybrid fitness for binding NBS DNA” value: ≤ 0.2 for the first, ≤ 0.2 for the second.

DCTR and QYTD cannot be ordered by “one-hybrid fitness for binding NBS DNA” value: ≤ 0.2 for the first, ≤ 0.2 for the second.

TITC and QKPY cannot be ordered by “one-hybrid fitness for binding NBS DNA” value: ≤ 0.2 for the first, ≤ 0.2 for the second.

RMML and TQTS cannot be ordered by “one-hybrid fitness for binding NBS DNA” value: ≤ 0.2 for the first, ≤ 0.2 for the second.

FPTG and MRVR cannot be ordered by “one-hybrid fitness for binding NBS DNA” value: ≤ 0.2 for the first, ≤ 0.2 for the second.

KVSW and SINS cannot be ordered by “one-hybrid fitness for binding NBS DNA” value: ≤ 0.2 for the first, ≤ 0.2 for the second.

First: KRAS
Second: HCGP
The “one-hybrid fitness for binding NBS DNA” value of the first is higher: 0.409 for the first, ≤ 0.2 for the second.

RYQG and QVKE cannot be ordered by “one-hybrid fitness for binding NBS DNA” value: ≤ 0.2 for the first, ≤ 0.2 for the second.

EHQS and AIMR cannot be ordered by “one-hybrid fitness for binding NBS DNA” value: ≤ 0.2 for the first, ≤ 0.2 for the second.

FRLV and KTLQ cannot be ordered by “one-hybrid fitness for binding NBS DNA” value: ≤ 0.2 for the first, ≤ 0.2 for the second.

RVVF and AMTW cannot be ordered by “one-hybrid fitness for binding NBS DNA” value: ≤ 0.2 for the first, ≤ 0.2 for the second.

HYQE and RWAA cannot be ordered by “one-hybrid fitness for binding NBS DNA” value: ≤ 0.2 for the first, ≤ 0.2 for the second.

RNSD and WNQG cannot be ordered by “one-hybrid fitness for binding NBS DNA” value: ≤ 0.2 for the first, ≤ 0.2 for the second.

ETCR and RKII cannot be ordered by “one-hybrid fitness for binding NBS DNA” value: ≤ 0.2 for the first, ≤ 0.2 for the second.

SSLA and LADP cannot be ordered by “one-hybrid fitness for binding NBS DNA” value: ≤ 0.2 for the first, ≤ 0.2 for the second.

WNAL and TPGM cannot be ordered by “one-hybrid fitness for binding NBS DNA” value: ≤ 0.2 for the first, ≤ 0.2 for the second.

Compared with IRNI, QYDS is higher in “one-hybrid fitness for binding NBS DNA” value: ≤ 0.2 for the first, 0.203 for the second.

HKKT and EPFG cannot be ordered by “one-hybrid fitness for binding NBS DNA” value: ≤ 0.2 for the first, ≤ 0.2 for the second.

Compared with GWLI, AWPS is lower in “one-hybrid fitness for binding NBS DNA” value: 0.404 for the first, ≤ 0.2 for the second.

QNTC and MRGY cannot be ordered by “one-hybrid fitness for binding NBS DNA” value: ≤ 0.2 for the first, ≤ 0.2 for the second.

QFMG and RQNP cannot be ordered by “one-hybrid fitness for binding NBS DNA” value: ≤ 0.2 for the first, ≤ 0.2 for the second.

RCKL and WYAL cannot be ordered by “one-hybrid fitness for binding NBS DNA” value: ≤ 0.2 for the first, ≤ 0.2 for the second.

DLDR and IMHM cannot be ordered by “one-hybrid fitness for binding NBS DNA” value: ≤ 0.2 for the first, ≤ 0.2 for the second.

TNSN and HTKV cannot be ordered by “one-hybrid fitness for binding NBS DNA” value: ≤ 0.2 for the first, ≤ 0.2 for the second.

YCKK and RLTV cannot be ordered by “one-hybrid fitness for binding NBS DNA” value: ≤ 0.2 for the first, ≤ 0.2 for the second.

SKKG and YSIG cannot be ordered by “one-hybrid fitness for binding NBS DNA” value: ≤ 0.2 for the first, ≤ 0.2 for the second.

NYNM and VCNA cannot be ordered by “one-hybrid fitness for binding NBS DNA” value: ≤ 0.2 for the first, ≤ 0.2 for the second.

AYNH and MTDS cannot be ordered by “one-hybrid fitness for binding NBS DNA” value: ≤ 0.2 for the first, ≤ 0.2 for the second.

HPLQ and GGMD cannot be ordered by “one-hybrid fitness for binding NBS DNA” value: ≤ 0.2 for the first, ≤ 0.2 for the second.

ASHD and KMKC cannot be ordered by “one-hybrid fitness for binding NBS DNA” value: ≤ 0.2 for the first, ≤ 0.2 for the second.

QLYI and FASD cannot be ordered by “one-hybrid fitness for binding NBS DNA” value: ≤ 0.2 for the first, ≤ 0.2 for the second.

QAIV and FRQV cannot be ordered by “one-hybrid fitness for binding NBS DNA” value: ≤ 0.2 for the first, ≤ 0.2 for the second.

YDMS and FAKS cannot be ordered by “one-hybrid fitness for binding NBS DNA” value: ≤ 0.2 for the first, ≤ 0.2 for the second.

GPPK and MMGR cannot be ordered by “one-hybrid fitness for binding NBS DNA” value: ≤ 0.2 for the first, ≤ 0.2 for the second.

TPEY and NMMP cannot be ordered by “one-hybrid fitness for binding NBS DNA” value: ≤ 0.2 for the first, ≤ 0.2 for the second.

NSHK and PDEG cannot be ordered by “one-hybrid fitness for binding NBS DNA” value: ≤ 0.2 for the first, ≤ 0.2 for the second.

FKYR and QNAP cannot be ordered by “one-hybrid fitness for binding NBS DNA” value: ≤ 0.2 for the first, ≤ 0.2 for the second.

SMVF and ERII cannot be ordered by “one-hybrid fitness for binding NBS DNA” value: ≤ 0.2 for the first, ≤ 0.2 for the second.

AKYG and DLPG cannot be ordered by “one-hybrid fitness for binding NBS DNA” value: ≤ 0.2 for the first, ≤ 0.2 for the second.

ENYT and HFIV cannot be ordered by “one-hybrid fitness for binding NBS DNA” value: ≤ 0.2 for the first, ≤ 0.2 for the second.

MTAW and FHHI cannot be ordered by “one-hybrid fitness for binding NBS DNA” value: ≤ 0.2 for the first, ≤ 0.2 for the second.

KYSC and LSHA cannot be ordered by “one-hybrid fitness for binding NBS DNA” value: ≤ 0.2 for the first, ≤ 0.2 for the second.

VMAR and NQNT cannot be ordered by “one-hybrid fitness for binding NBS DNA” value: ≤ 0.2 for the first, ≤ 0.2 for the second.

QSQD and FRHC cannot be ordered by “one-hybrid fitness for binding NBS DNA” value: ≤ 0.2 for the first, ≤ 0.2 for the second.

PTLG and RIET cannot be ordered by “one-hybrid fitness for binding NBS DNA” value: ≤ 0.2 for the first, ≤ 0.2 for the second.

LKDH and NAQN cannot be ordered by “one-hybrid fitness for binding NBS DNA” value: ≤ 0.2 for the first, ≤ 0.2 for the second.

GKRT and DGIC cannot be ordered by “one-hybrid fitness for binding NBS DNA” value: ≤ 0.2 for the first, ≤ 0.2 for the second.

LYPG and QGRS cannot be ordered by “one-hybrid fitness for binding NBS DNA” value: ≤ 0.2 for the first, ≤ 0.2 for the second.

ASAF and RDCN cannot be ordered by “one-hybrid fitness for binding NBS DNA” value: ≤ 0.2 for the first, ≤ 0.2 for the second.

KEGM and QHFV cannot be ordered by “one-hybrid fitness for binding NBS DNA” value: ≤ 0.2 for the first, ≤ 0.2 for the second.

ALGG and SCSN cannot be ordered by “one-hybrid fitness for binding NBS DNA” value: ≤ 0.2 for the first, ≤ 0.2 for the second.

NRKM and DGKF cannot be ordered by “one-hybrid fitness for binding NBS DNA” value: ≤ 0.2 for the first, ≤ 0.2 for the second.

RVVI and PRFE cannot be ordered by “one-hybrid fitness for binding NBS DNA” value: ≤ 0.2 for the first, ≤ 0.2 for the second.

DCTS and AWKI cannot be ordered by “one-hybrid fitness for binding NBS DNA” value: ≤ 0.2 for the first, ≤ 0.2 for the second.

NPIA and ISPL cannot be ordered by “one-hybrid fitness for binding NBS DNA” value: ≤ 0.2 for the first, ≤ 0.2 for the second.

QEAN and RHRG cannot be ordered by “one-hybrid fitness for binding NBS DNA” value: ≤ 0.2 for the first, ≤ 0.2 for the second.

First: FTEI
Second: QCNS
The “one-hybrid fitness for binding NBS DNA” value of the first is lower: ≤ 0.2 for the first, 0.534 for the second.

GSDG and SLTV cannot be ordered by “one-hybrid fitness for binding NBS DNA” value: ≤ 0.2 for the first, ≤ 0.2 for the second.

SHQS and RAGQ cannot be ordered by “one-hybrid fitness for binding NBS DNA” value: ≤ 0.2 for the first, ≤ 0.2 for the second.

LPYY and QEQR cannot be ordered by “one-hybrid fitness for binding NBS DNA” value: ≤ 0.2 for the first, ≤ 0.2 for the second.

FKIS and FYVS cannot be ordered by “one-hybrid fitness for binding NBS DNA” value: ≤ 0.2 for the first, ≤ 0.2 for the second.

GDED and LKWC cannot be ordered by “one-hybrid fitness for binding NBS DNA” value: ≤ 0.2 for the first, ≤ 0.2 for the second.

TTSK and PPTS cannot be ordered by “one-hybrid fitness for binding NBS DNA” value: ≤ 0.2 for the first, ≤ 0.2 for the second.

WNLC and MTKY cannot be ordered by “one-hybrid fitness for binding NBS DNA” value: ≤ 0.2 for the first, ≤ 0.2 for the second.

NRTA and WIHS cannot be ordered by “one-hybrid fitness for binding NBS DNA” value: ≤ 0.2 for the first, ≤ 0.2 for the second.

PQRY and EVAV cannot be ordered by “one-hybrid fitness for binding NBS DNA” value: ≤ 0.2 for the first, ≤ 0.2 for the second.

HMLN and TKRP cannot be ordered by “one-hybrid fitness for binding NBS DNA” value: ≤ 0.2 for the first, ≤ 0.2 for the second.

NCKN and HVRE cannot be ordered by “one-hybrid fitness for binding NBS DNA” value: ≤ 0.2 for the first, ≤ 0.2 for the second.

IHTS and PRHN cannot be ordered by “one-hybrid fitness for binding NBS DNA” value: ≤ 0.2 for the first, ≤ 0.2 for the second.

HFNL and DSPL cannot be ordered by “one-hybrid fitness for binding NBS DNA” value: ≤ 0.2 for the first, ≤ 0.2 for the second.

SSSA and TSCE cannot be ordered by “one-hybrid fitness for binding NBS DNA” value: ≤ 0.2 for the first, ≤ 0.2 for the second.

First: IRRR
Second: PHNP
The “one-hybrid fitness for binding NBS DNA” value of the first is higher: 0.601 for the first, ≤ 0.2 for the second.

PCSE was tested, and the “one-hybrid fitness for binding NBS DNA” value was ≤ 0.2.
